According to PubChem BioAssay AID485297 (National Center for Advancing Translational Sciences (NCATS), 2010):
The campaign covered roughly 320,000 compounds. About 9,100 (2.8%) were called active. The shares of active, inactive and inconclusive entries below differ from those in the screen. Calls follow the shape of the dose curve; as a rule, active = well fitted activation curve with a large enough effect; inconclusive = small, poorly fitted or top-dose-only effect; inactive = no such curve, though single readings can be large or run the other way. No potency is given beside an inconclusive call; the fits are too rough.

assay: qHTS Assay for Rab9 Promoter Activators; details: Huh7 Rab9 promoter-luciferase reporter, luminescence, 24 h; series mostly up to 9.22 µM; activation, negative = inhibition: at the top concentration; also: nearly all actives have a fitted effect of over 60% in size; as to activation, negative = inhibition: % of control where 0% means no effect
Outline: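 Cell-based reporter: Huh7 stable for Rab9 promoter-driven luciferase, plated in reduced-serum medium with 10% FBS at 1500 cells/well, compound-treated 24 h at 37 °C, luminescence read after 10 min reagent.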
Potency is read from the fitted curve at half-maximal effect; tags tell the direction and shape of the fitted curve.

Structure (SMILES)	Potency	activation, negative = inhibition
N/C(=N\OC(=O)c1ccc(F)cc1)c1ccccc1	inconclusive [activator, single point]	–
O=C(NCc1cccnc1)C1CC(c2ccccc2O)=NO1 (stereo not drawn)	–	inactive: 5.41%
CCOC(=O)N1CCN(C(=O)CNC(=O)c2nn(-c3ccc(OC)cc3)c(=O)c3ccccc23)CC1	inconclusive [activator, partial curve]	–
CCCn1c(C)cc(C(=O)CSc2nc3ccccc3c(=O)n2Cc2ccco2)c1C	active: 3.55 µM	–
CCOC(=O)C(=CNc1ccc(-c2ccco2)c(Cl)c1)C(=O)OCC	–	inactive: -0.281%
COc1ccc(Cc2nnc(-c3ccccc3)o2)cc1	inconclusive [activator, single point]	–
CCS(=O)(=O)N1Cc2ccccc2CC1C(=O)Nc1nc2ccccc2[nH]1 (stereo not drawn)	–	inactive: 20.1%
Cc1sc(NC(=O)c2cccs2)nc1-c1ccccc1	inconclusive [activator, partial curve]	–
CCC(O)(CC)C(=O)NN(C(=O)CCl)c1ccccc1	–	inactive: -0.663%
O=C(Nc1cccc(C(F)(F)F)c1)C(=O)N1CCCCC1	inconclusive [activator, partial curve]	–
O=c1c2ccccc2nc2n1CC/C2=C\c1ccccc1[N+](=O)[O-]	inconclusive [activator, partial curve]	–
Cc1cccc(-c2nnc(SCC(=O)N3CCOCC3)o2)c1	inconclusive [activator, partial curve]	–
Cc1cc(C(=O)N/N=C/c2c(C)nn(-c3ccccc3)c2Cl)n[nH]1	inconclusive [activator, single point]	–
CC(C)(C)Cc1nc(-c2ccccn2)no1	inconclusive [activator, partial curve]	–
CC(=O)c1c(C)[nH]c(C(=O)OCC(=O)Nc2c(C)cccc2C)c1C	–	inactive: -11.3%
CCNC(=O)Nc1nc2ccccc2s1	inconclusive [activator, single point]	–
C=CC(=O)OCCOCCOCCOCCOC(=O)C=C	–	inactive: 1.04%
CS(=O)(=O)c1ccc(C(=O)Nc2ccc(N3CCCC3)cc2)c(Cl)c1	inconclusive [activator, single point]	–
CCN1CCN(CC(=O)Nc2nc3ccc(OC)cc3s2)CC1	–	inactive: -5.15%
Fc1ccc(-c2ccc(Nc3cccc(F)c3)nn2)cc1	inconclusive [activator, partial curve]	–
Cc1cccc(C)c1N1CCN(C(=O)Nc2ccc3c(c2)OCCO3)CC1	inconclusive [activator, single point]	–
Cc1cc(C)c2c(=O)n(-c3ccccc3)[nH]c2n1	inconclusive [activator, partial curve]	–
CN(C)c1nc2ccc(OCCN3CCCCC3)cc2s1	inconclusive [activator, partial curve]	–
CCOc1ccc2nc(NC(=O)CSc3cn[nH]n3)sc2c1	active: 4.47 µM	–
O=C(CSc1ccccc1)N1CCc2ccccc21	active: 3.55 µM	–
Cc1occc1C(=O)Nc1cccc(C(=O)O)c1	active: 2.82 µM	–

Structure (SMILES)	Potency	activation, negative = inhibition
CCCCCOCC(O)CCC(=O)NN (stereo not drawn)	–	inactive: 4.5%
COc1ccc(C(=O)c2ccc(Br)cc2)cc1	inconclusive [activator, partial curve]	–
CCC1CCCCN1C(=O)CCS(=O)(=O)c1ccccc1 (stereo not drawn)	inconclusive [activator, partial curve]	–
COCC(=O)Nc1cc(C)cn(Cc2cccc(C(F)(F)F)c2)c1=O	–	inactive: 0.0401%
N#Cc1ccccc1OCC(=O)NC(=O)NCc1ccco1	inconclusive [activator, single point]	–
COC(=O)c1ccc(COc2ccc(NC(C)=O)cc2)o1	–	inactive: -1.14%
CCC(=O)Nc1cccc(-c2nnc(SCC(=O)c3ccccc3)n2C)c1	active: 1.78 µM	–
COC(=O)c1ccccc1NC(=O)c1ccc(-c2ccccc2F)o1	inconclusive [activator, full curve]	–
c1ccc(-c2noc(CC3CCCCC3)n2)cc1	inconclusive [activator, single point]	–
Fc1cccc(/C=N/Nc2nccnc2Cl)c1	inconclusive [activator, single point]	–
COCCn1c(SCC(=O)/C=C2\N(C)c3ccccc3C2(C)C)nnc1-c1ccncc1	–	inactive: -10.7%
O=C(CCc1ccccc1)NC(=S)NCc1ccco1	inconclusive [activator, single point]	–
CCOC(=O)C1CCN(S(=O)(=O)c2cccc(-c3cn4cccnc4n3)c2)CC1	inconclusive [activator, single point]	–
COc1ccc2nc(SCC(=O)Nc3cc(C)on3)c(C#N)cc2c1	inconclusive [activator, partial curve]	–
COc1ccc(-c2nc(C#N)c(NCc3ccco3)o2)cc1	inconclusive [activator, single point]	–
CCCOc1ccc(/C=N/O)cc1	–	inactive: 17.6%
N#C/C(=N\Nc1cccc(C(F)(F)F)c1)C(=O)c1csc(-c2cccnc2)n1	–	inactive: -8.14%
CC(C)n1c(/C=C/c2ccccc2)nc2ccccc21	inconclusive [activator, partial curve]	–
O=C(O)c1ccc(N/N=C/c2ccc(OC(=O)c3ccccc3Cl)cc2)cc1	inconclusive [activator, full curve]	–
CC(C)(C)c1ccc(OCC(=O)N2CCCCCC2)c(Br)c1	inconclusive [activator, single point]	–
CCSc1nnc(NC(=O)c2ccc3ccccc3n2)s1	inconclusive [activator, single point]	–
Cn1c(SCc2ccccc2F)nnc1-c1cnccn1	active: 3.16 µM	–
Cc1noc(C)c1COC(=O)c1cc(C)n(-c2ccccc2)c1C	inconclusive [activator, partial curve]	–
CC(Sc1nnc(C(F)(F)F)n1C)C(=O)Nc1ccc(S(N)(=O)=O)cc1 (stereo not drawn)	inconclusive [activator, single point]	–
CN(C)C=NC(=O)c1cc(C(=O)c2ccc(C(C)(C)C)cc2)c[nH]1	active: 1.12 µM	–
COc1ccc(C(=O)OCC(=O)N2CCCC2=O)c(OC)c1	inconclusive [activator, single point]	–

Structure (SMILES)	Potency	activation, negative = inhibition
COc1ccc(C)cc1-n1nnnc1SCc1nc2ccccc2s1	inconclusive [activator, partial curve]	–
CC(C)NC(=O)CCCOc1ccc(Cl)cc1Cl	–	inactive: 24%
Cc1ccccc1NC(=O)Nc1ccc2c(c1)CCC2	active: 2.51 µM	–
Cc1ccsc1C(=O)NCCc1ccco1	inconclusive [activator, single point]	–
CCCCCc1ccc(-c2cn(Cc3ccc(C(=O)c4ccccc4)cc3)nn2)cc1	inconclusive [activator, partial curve]	–
CCN(CC)C(=O)CS(=O)(=O)CC(=O)Nc1cc(OCCOC)c(Cl)cc1Cl	–	inactive: -1.9%
CCS(=O)(=O)c1ccc2oc(Nc3cc(Cl)ccc3OC)nc2c1	–	inactive: 0.0557%
Cc1ccnc(SCC(=O)c2ccc(Br)cc2)c1C#N	active: 2.82 µM	–
O=C(Nc1ccccc1Cl)C1CCCN(S(=O)(=O)c2cccc3cccnc23)C1 (stereo not drawn)	–	inactive: 0.555%
O=C(NCCc1ccccn1)c1ccc(OC2CCN(Cc3ccccn3)CC2)cc1	inconclusive [activator, partial curve]	–
Cc1[nH]c2ccccc2c1N=Nc1cccc(C(=O)O)c1	active: 2.24 µM	–
CC(=O)Nc1ccc(NC(=O)CSc2nnc(NC(=O)Cc3ccc(F)cc3)s2)cc1	–	inactive: 2.42%
O=C1N=c2ccccc2=C1c1sc(Nc2cccc(O)c2)nc1O	–	inactive: 5.03%
Nc1nc(CSC(=S)N2CCCCC2)nc(Nc2ccccc2)n1	inconclusive [activator, partial curve]	–
Cc1cccc(-n2cnc3cc(C(=O)N4CCCCC4)ccc32)c1	inconclusive [activator, partial curve]	–
O=C1c2ccccc2C(=O)N1CCSC(=S)N1CCOCC1	inconclusive [activator, partial curve]	–
CC(O)CNc1nc2sc3c(c2c(=O)n1Cc1ccco1)CCCCC3 (stereo not drawn)	–	inactive: 29.5%
C/C(=N\NC(=O)c1ccc(Cl)cc1)c1cccc(NC(=O)c2cccnc2)c1	inconclusive [activator, single point]	–
CCCc1ccc(-c2ccc(F)c(N)c2)nc1	active: 0.398 µM	–
CC(C)c1ccc(/C=C2\SC(=O)N(CC(=O)NCCCn3ccnc3)C2=O)cc1	active: 3.55 µM	–
Nc1ncccc1OCc1ccc(Br)cc1	active: 2.24 µM	–
OC(CCc1cccc(Cl)c1)c1cccs1 (stereo not drawn)	inconclusive [activator, partial curve]	–
CC1CCc2c(nc3sc4c(c3c2N)CCCC4)C1 (stereo not drawn)	inconclusive [activator, single point]	–
CC(C)[C@@H](CO)NC(=O)c1ccc2c3n(nc2c1)-c1ccccc1CO3	inconclusive [activator, full curve, poor fit]	–
COc1ccc2nc(N(Cc3ccccc3)C(=O)CCNC(C)=O)sc2c1	inconclusive [activator, partial curve]	–
COc1ccc(-c2cc3cc(OC)c(OC)cc3c(C)n2)cc1	inconclusive [activator, single point]	–
